In all, about 33,000 sequences were measured (“E-score (-0.5 to 0.5)”: median about -0.054, highest 2% from about 0.35 on). The list shows a part of the results.
target: T1, Stb5 (UniProt P38699); test: PBM E-score (8-mer binding enrichment) (E-score (-0.5 to 0.5)); higher = stronger / more preferred TF binding; most listed sequences are background and not binding sites; settings: protein concentration: 200 nM; construct: GST-full length
T1 sequence: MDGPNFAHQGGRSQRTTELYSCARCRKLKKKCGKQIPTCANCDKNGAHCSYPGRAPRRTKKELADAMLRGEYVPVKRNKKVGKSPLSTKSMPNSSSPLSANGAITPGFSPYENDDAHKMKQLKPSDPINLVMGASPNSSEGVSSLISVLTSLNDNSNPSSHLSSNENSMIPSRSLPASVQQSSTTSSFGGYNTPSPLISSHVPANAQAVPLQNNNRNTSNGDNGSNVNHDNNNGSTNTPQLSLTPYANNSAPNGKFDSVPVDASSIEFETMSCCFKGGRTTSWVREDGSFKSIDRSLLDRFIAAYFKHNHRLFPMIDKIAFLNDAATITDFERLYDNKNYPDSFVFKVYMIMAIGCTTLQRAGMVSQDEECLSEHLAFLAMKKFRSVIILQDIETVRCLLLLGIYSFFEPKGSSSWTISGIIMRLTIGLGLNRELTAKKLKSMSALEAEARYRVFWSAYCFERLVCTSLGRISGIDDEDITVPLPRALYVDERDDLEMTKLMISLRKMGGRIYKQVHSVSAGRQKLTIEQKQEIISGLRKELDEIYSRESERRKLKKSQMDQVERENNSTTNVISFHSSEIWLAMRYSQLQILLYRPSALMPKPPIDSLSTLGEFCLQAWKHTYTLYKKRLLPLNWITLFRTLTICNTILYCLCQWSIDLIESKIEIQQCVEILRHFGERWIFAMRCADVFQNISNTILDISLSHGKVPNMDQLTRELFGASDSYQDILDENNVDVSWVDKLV
Method in brief: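 Using PURExpress in vitro transcription/translation, GST-tagged yeast transcription factors were made in full-length or DNA-binding-domain form. These were applied at about 100-200 nM to double-stranded universal all-10-mer Agilent arrays, and bound protein was detected with fluorescent anti-GST. Scans were normalised with masliner before the Universal PBM Analysis Suite assigned E-scores to ungapped eight-base words pooled with their reverse complements.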

Row | Sequence | PBM E-score
1 | CTAAGGCA | -0.101
2 | ACACGCGC | 0.0578
3 | CTCGAATA | -0.0857
4 | GAGTTGCA | 0.0644
5 | CCGCACAA | 0.154
6 | AAAGAATT | -0.151
7 | ATGCACCG | 0.277
8 | CAGGGTAG | -0.165
9 | AGTCTACG | -0.206
10 | GGTCCACC | 0.0438
11 | AGCAACAC | -0.104
12 | GTCCAGAC | -0.0488
13 | AGCTATCA | -0.0424
14 | GAAAGAAA | -0.022
15 | CCTGCAAA | -0.153
16 | CAGTGACC | -0.143
17 | GCTACTGA | -0.0778
18 | GTAGGGTA | -0.0932
19 | ACTCCCGA | 0.287
20 | AACGGTAA | 0.235
21 | GTAAGCAC | -0.0465
22 | TACAAGAA | -0.045

Row | Sequence | PBM E-score
23 | CCGGGCTA | 0.19
24 | CTAGTCAC | 0.0235
25 | TGGATTAA | -0.18
26 | CGCTGACA | 0.129
27 | GGCTTGCA | 0.0133
28 | AGCCGAAA | -0.0369
29 | CTCCCGTA | -0.107
30 | AATTTACC | 0.22
31 | GTGCTAAC | 0.208
32 | CTCCTATA | -0.22
33 | CCACAATC | -0.0333
34 | ATCATATA | -0.125
35 | AGTCCGGC | 0.38
36 | GAACTGAA | -0.0941
37 | TAAGGACA | -0.0617
38 | GCACTTAC | 0.193
39 | CGTGCCTC | -0.149
40 | ACGTCTGA | -0.0368
41 | CAGGAAGA | -0.108
42 | ACATAGAG | -0.11
43 | ACGGACCA | 0.237
44 | ACAATGCT | -0.184

Row | Sequence | PBM E-score
45 | CTGACACC | 0.29
46 | GATTCATA | -0.00887
47 | CAAAGAGG | -0.0165
48 | CAATAGCC | 0.0314
49 | CTAGGAGC | -0.112
50 | AATCGACT | -0.21
51 | CCTAGCAA | -0.129
52 | TGGTTCAA | -0.143
53 | CCTCGCTC | -0.0606
54 | ACGTGACT | -0.0808
55 | GACACGAC | -0.228
56 | CGACCGCA | 0.123
57 | AAGATGAT | -0.11
58 | AATGACTA | -0.17
59 | AGCTGTAG | -0.188
60 | ATGTGGGG | -0.138
61 | GGTAGAAC | 0.121
62 | ACATTGGT | -0.229
63 | GCCCCCAA | -0.234
64 | GAGGTGGC | -0.143
65 | ACTATAAG | 0.173
66 | TTATTAAA | 0.129

Row | Sequence | PBM E-score
67 | CTCATGCA | -0.13
68 | GGCATGCC | 0.226
69 | GATTGATA | -0.13
70 | AAAGACCT | -0.0221
71 | AGATTCGA | -0.131
72 | AGTAGCCA | -0.303
73 | ATTTTCTC | 0.0576
74 | CATGCTGC | -0.138
75 | CTGATAGA | -0.0917
76 | AAGGAAAG | 0.0346
77 | CCCTTATA | -0.00682
78 | CTCAAGTC | -0.221
79 | AACGGGGC | 0.294
80 | ATAGGACC | 0.31
81 | AATATGGT | 0.156
82 | AAACGCCA | -0.046
83 | CTTGTGAA | -0.198
84 | AACGTCAA | -0.237
85 | CGTAGTCC | 0.0487
86 | AAGGTGCA | -0.216

Source: the supplement of paper PMC3334620
